Screen size: about 44,000 compounds; about 340 (0.77%) were called active. About 5% were inconclusive and are not listed. The call rests on the fitted dose curve; in most records, active means well fitted inhibition curve with a large enough effect; inconclusive means small, poorly fitted or top-dose-only effect; inactive means flat fitted curve, though single readings scatter. Some of the results follow.
Experiment: Acumen qHTS Assay for Inhibitors of the mTORC1 Signaling Pathway in MEF (Tsc2-/-, p53-/-) Cells: Sytravon;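 further: plate controls were DMSO for no effect and rapamycin for full effect; nearly all actives have a fitted effect of over 50% in size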
Settings: phospho-rpS6 immunofluorescence/PI, 24 h; series mostly up to 38.3 µM; activity change, negative = inhibition: at the top concentration
Method in brief: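 Compounds act on Tsc2-/-, p53-/- fibroblasts carrying an empty vector for 24 h before fixation and dual staining for phospho-S6 and DNA (propidium iodide). Values are percentages of cells above a rapamycin-defined pS6/PI threshold.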

Activity change, negative = inhibition, inactive:
CN(C)c1ccc(Nc2ncnc3c2c(-c2ccccc2)cn3-c2cccc(Cl)c2)cc1 0%
Cc1cccc(S(=O)(=O)c2cn(Cc3ccccc3)c3cc(N4CCCCC4)c(F)cc3c2=O)c1 -11.2%
COc1ccc(CCC(=O)NC2CC(=O)N(c3ccc(F)cc3)C2)cc1 (configuration not stated) -5.5%
CCN(CC)C(=O)c1c(-c2ccccc2)c(-c2ccccc2)nn(CC)c1=O -2.37%
COc1ccccc1N1CCN(C(=O)CN2C(=O)COc3ccc(S(=O)(=O)N4CCOCC4)cc32)CC1 -7.48%
CCN(Cc1nc(-c2ccc(OC)c(OC)c2)no1)S(=O)(=O)c1ccc(OC)cc1 0.542%
COc1ccc(-c2nc3sc(CCNC(=O)c4ccc(Br)o4)c(C)n3n2)cc1 0.559%
O=C(CSc1nc(=O)n(Cc2ccccn2)c2c1CCC2)Nc1ccccc1 -3.27%
CSc1ccccc1NC(=O)CCS(=O)(=O)c1nc(-c2ccc3c(c2)OCO3)cc(C(F)(F)F)n1 -4.24%
COc1cc(CNC(=O)c2cnc(SC)nc2-c2ccccc2)cc(OC)c1OC -8.15%
Cc1ccc(S(=O)(=O)C(CNS(=O)(=O)c2cc(F)ccc2F)c2cccs2)cc1 (configuration not stated) -0.135%
CC(C)(C)OC(=O)N1CCC(c2c(C(=O)NC3CCCCC3)cnn2-c2ccc(F)cc2F)CC1 0.891%
O=C(O)c1ccccc1C(=O)Nc1ccc(Br)c2cccnc12 -1.28%
CCN1CCN(c2oc(-c3ccc(COc4ccccc4C)o3)nc2C#N)CC1 -20.8%
CCCNC(=O)c1ccc2c(c1)nc1n2CCCCC1 -9.51%
Cc1noc(C)c1S(=O)(=O)N(CC(=O)Nc1ccc(F)cc1F)c1ccc(C(C)C)cc1 -1.93%
Cc1ccc(NC(=O)C2CCN(S(=O)(=O)c3cccc4nsnc34)CC2)cc1F -19.3%
COc1ccc(Cn2ccc3nc(C)c(C(=O)Nc4cccc(SC)c4)cc3c2=O)cc1 -1.43%
COc1cccc(CNC(=O)Cn2ncn3nc(-c4cccs4)cc3c2=O)c1 -0.532%
COc1ccc(NC(=O)C(=O)NCCc2csc3nc(-c4ccccc4F)nn23)cc1OC 6.17%
CC(=O)c1ccc(NS(=O)(=O)c2ccc3c(c2)NC(=O)CCS3)cc1 -3.3%
CCn1cc2nc(SCc3ccccc3Cl)n(Cc3ccc(OC)cc3)c(=O)c2n1 9.2%
COc1cccc(CNC(=O)c2ccc(-c3nc(CSc4ccccc4)c(C)o3)cc2)c1 -9.27%
CCCN(CCC)CCCNC(=O)c1cc2c(=O)n(C)c3ccccc3c2s1 1.17%
CC(=O)Nc1ccccc1-c1nc2ccccc2n(C(C)C(=O)Nc2ccccc2C(F)(F)F)c1=O (configuration not stated) 0%
COc1ccc(-c2c(C)c3ccc(O)c(CN4CCC(C)CC4)c3oc2=O)cc1OC 0.295%
COc1ccc(C(Nc2ccccn2)c2ccc3ccc(C)nc3c2O)cc1C (configuration not stated) 4.23%
CN1CCN(c2ncnc3c2cnn3-c2cccc(Cl)c2)CC1 6.71%
Cc1cccc(N2CCN(C3=C(c4ccccc4)C(=O)c4ccccc43)CC2)c1C -29.1%
Cc1ccc(CNC(=O)c2cc(=O)c3cc(C)ccc3o2)cc1 -8.79%
COc1cc(OC)c(OC)cc1/C=C/c1nc2cc3ccccc3cc2c(=O)n1-c1ccccc1Br 7.38%
COc1cc2c(c(OC)c1)C(c1cccc(F)c1F)CC(=O)N2 (configuration not stated) 3.21%
CCOC(=O)c1c(NC(=O)c2cc(=O)c3cc(C)ccc3o2)sc2c1CCCC2 3.48%
COc1ccc(Cl)cc1NC(=O)CSC1=Nc2ccccc2C2=NC(CCC(=O)NCc3ccco3)C(=O)N12 (configuration not stated) -6.66%
Cc1ccc(Cn2c(CCNC(=O)c3cccc(C)c3)nc3ccccc32)cc1 -7.38%
Cc1cccc(NC(=O)CN2C(=O)C3(SCC(=O)N3c3ccccc3)c3ccccc32)c1 (configuration not stated) -2.31%
Cc1ccc(Cn2c(C(=O)O)c(CNCc3ccc(C)o3)c3ccc(C)cc32)cc1 -3.02%
Cc1ccc(S(=O)(=O)N2CCN(Cc3ccccc3Cl)CC2)cc1 -4.68%
COc1ccc(NC(=O)c2cccc(N3CCCS3(=O)=O)c2)c(OC)c1 0.902%
CC(C)Cn1cc(NC(=O)NCc2cccc(Cl)c2)c2ccccc2c1=O 1.33%
O=C(NCCC1=CCCCC1)c1ccc2c(c1)sc1nc(-c3ccc(F)cc3)cn12 -15.1%
O=C(NCCc1ccccc1)c1ccc2c(c1)N(Cc1ccc(F)cc1)C(=O)CS2 2.56%
CCN(CC)c1ccc(NC(=O)CN2CCN(CC(=O)Nc3ccc(Cl)cc3)CC2)cc1 1.28%
Cc1ccc2oc(C(=O)Nc3sc4c(c3C(=O)NCC3CCCO3)CCC4)cc(=O)c2c1 (configuration not stated) -0.185%
COCCNC(=O)Cn1nc(-c2ccccc2)c2ccccc2c1=O -1.68%
COc1cc(OC)c(C2CC(=O)Nc3ccc4ccccc4c32)cc1OC (configuration not stated) 1.87%
CC(NC(=O)c1cc2c(=O)n3ccccc3nc2n(C(C)C)c1=N)c1ccccc1 (configuration not stated) -11.3%
CC(NC(=O)Cn1c(=O)oc2cc(S(=O)(=O)N3CCCCCC3)ccc21)c1ccccc1 (configuration not stated) 0.0619%
COC(=O)c1ccccc1NC(=O)c1nc(-c2ccc(C)cc2)n2c1CCCCC2 6.57%
COc1cccc(Cn2c(=O)n(CC3CCC(C(=O)NC(C)C)CC3)c(=O)c3sccc32)c1 (configuration not stated) -11%
Cc1cn(C)c(CC(=O)NCc2ccc(Cl)cc2)c1C(=O)O -9.1%
Cc1cccc(OC(=O)CSc2nnc(-c3ccc4c(c3)OCO4)o2)c1C -9.84%
Cc1ccc(C2=NN(CC(=O)NCCc3ccccc3)C(=O)CC2)cc1 1.77%
Cc1ccc(CCNS(=O)(=O)c2ccc3c(c2)C(C(C)C)C(=O)N3)cc1 (configuration not stated) -3.37%
COc1cc(NC(=O)CN2C(=O)CCc3cc(Br)ccc32)cc(OC)c1OC 0%
Cc1cccc(-c2noc(-c3cc(C(C)C)[nH]n3)n2)c1 0%
CC(=O)N1c2ccccc2C(=O)C1N1CCN(c2cccc(Cl)c2)CC1 (configuration not stated) -1.44%
CCOc1ccc(C2c3c(-c4cc(C)ccc4O)n[nH]c3C(=O)N2Cc2cccnc2)cc1OCC (configuration not stated) -7.06%
COc1ccccc1NC(=O)CC(C)n1nc(C)cc1C (configuration not stated) 1.04%
COc1ccc(OC)c(CCNC(=O)CCCn2c(=O)c3cccn3c3ccc(F)cc32)c1 -25.1%
COc1ccccc1Nc1ncc2c(n1)CCN(Cc1ccc(C)s1)C2 0%
Cc1cc(F)ccc1NC(=O)CCS(=O)(=O)c1cc2c(cc1C)NC(=O)CO2 2.84%
